# Source: PubChem BioAssay AID652104 (National Center for Advancing Translational Sciences (NCATS), 2013)
# Several values for one entry are separate records, joined by “and”; a condition that tells them apart may be missing. Equal values may be shown once. Out of some 410,000 compounds screened, about 7,200 (1.8%) were called active. The inconclusive results got no clear call from the source; some entries with a clear call stand among them for comparison. The call rests on the fitted dose curve; in most records, active means well fitted activation curve with a large enough effect; inconclusive means small, poorly fitted or top-dose-only effect, or another doubt; inactive means no such curve, though single readings can be large or run the other way. Potencies of inconclusive entries are doubtful fits and often do not repeat.
# Assay: qHTS of TDP-43 Inhibitors; further: nearly all actives have a fitted effect of over 50% in size; on growth rescue (activation): % of control where 0% means no effect
# Conditions: TDP-43 expressing yeast growth rescue, BacTiter-Glo, 24 h; growth rescue (activation): at 46.1 µM (top of the series) unless noted
# Procedure, shortened: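 Yeast expressing TDP-43 (pregrown in raffinose, seeded at OD600=0.02 in galactose medium) exposed to compounds 24 hr at 30 deg C. Growth read by BacTiter-Glo luminescence; rescue of toxicity appears as increased signal.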
# Potency means the concentration at half of the fitted maximal effect; tags describe the fitted curve by direction and shape.
Structure (SMILES),growth rescue (activation),Potency
CC1(C)C2CCC1(C)C(OCCNCCOC(=O)Nc1ccccc1)C2 (stereo not given),inactive: -4.97%,–
CC(=O)Nc1ccc2c3c(cccc13)C(=O)N(c1ccccc1)C2=O,inactive: -5.26% [at 0.397 µM],–
N/C(=N\OC(=O)c1ccc(Cl)cc1Cl)c1cccnc1,–,active: 12.6 µM
CN(C=O)c1ccc(CSc2ccccc2)cc1,–,"inconclusive: 35.5 µM [activator, partial curve]"
COC(=O)CN1C(=O)CSc2ccc(S(=O)(=O)Nc3cccc(C)c3)cc21,inactive: -5.39%,–
Cn1cc(Br)c(C(=O)Nc2sc3c(c2C#N)CCC3)n1,–,"inconclusive: 2.51 µM [activator, full curve, poor fit]"
O=C1OC(c2ccccc2)Sc2ccccc21 (stereo not given),–,"inconclusive: 11.2 µM [activator, single point]"
Cc1csc(NC(=O)c2ccc(Cl)cc2[N+](=O)[O-])n1,–,"inconclusive: 20 µM [activator, partial curve, poor fit]"
COc1cccc(CNC(=O)CCCn2ncn3c(cc4occc43)c2=O)c1OC,inactive: -0.624%,–
Cc1oc2ccc(O)cc2c1C(=O)c1ccc(Br)cc1,–,"inconclusive: 5.01 µM [activator, partial curve]"
O=C(Nc1ccccc1N1CCCCC1)c1cccc(OC(F)F)c1,–,"inconclusive: 20 µM [activator, partial curve]"
CCc1cccc(NC(=O)CCc2c(C)nc3c(-c4ccccc4)c(C)nn3c2C)c1,inactive: 14.1%,–
CCOc1ccc(C(=S)NC2CCCCC2)cc1,–,"inconclusive: 11.2 µM [activator, single point]"
CCc1ccccc1NS(=O)(=O)c1ccc2c(c1)CCCN2C(=O)C1CCC1,inactive: 27.5%,–
Cc1nn2c(=O)cc(COC(=O)c3ccccc3NC(=O)c3cccs3)nc2s1,inactive: 23.6%,–
COc1ccc(Cc2c(Cl)ncnc2Cl)cc1,–,"inconclusive: 12.6 µM [activator, partial curve]"
COc1ccc(NC(=O)CN2CCN(Cc3ccccc3Cl)S2(=O)=O)cc1Cl,inactive: 0%,–
CCc1c(C)sc(NC(=O)c2ccco2)c1C#N,–,"inconclusive: 11.2 µM [activator, partial curve]"
CC(=O)Oc1ccc(/C=c2\sc3ncnn3c2=O)cc1,–,"inconclusive: 20 µM [activator, single point]"
COc1cc(C2SCCS2)cc(Br)c1Oc1ncccc1[N+](=O)[O-],–,"inconclusive: 14.1 µM [activator, partial curve]"
Cc1cc2nc(C3CCCCC3)c(Cc3ccsc3)n2c(C)c1Br,inactive: 19.8%,–
CSc1nc(SCC(=O)O)c2c3c(sc2n1)COC(C)(C)C3,inactive: 2.56%,–
Brc1ccccc1-n1nnc(-c2nccs2)n1,–,"inconclusive: 7.94 µM [activator, partial curve]"

Structure (SMILES),growth rescue (activation),Potency
Cc1c(C)c2cc3c(c(C)c2oc1=O)OCN(CCc1ccccc1)C3,inactive: -11.5%,–
CCOC(=O)CSC1=NC(=O)CS1,–,"inconclusive: 10 µM [activator, partial curve]"
c1ccc(CCNc2ncnc3scc(C4COc5ccccc5O4)c23)cc1 (stereo not given),–,"inconclusive: 20 µM [activator, single point]"
CCOc1ccc2nc(SCC3CC3(Cl)Cl)[nH]c2c1 (stereo not given),–,"inconclusive: 11.2 µM [activator, partial curve]"
N#CC(C(=O)Nc1ccccc1)=C1Nc2ccccc2N1,–,"inconclusive: 14.1 µM [activator, partial curve]"
CCN(CC)Cc1c(C(=O)N/N=C/c2cccc(OCc3ccc(F)cc3)c2)nnn1-c1nonc1N,–,"inconclusive: 11.2 µM [activator, single point]"
Cc1ccc2nc(N3CCN(C=O)CC3)nc(-c3ccccc3)c2c1,–,"inconclusive: 12.6 µM [activator, single point]"
COc1ccc(NC(=O)COc2cc(O)c3c(c2)OC(C)(C)CC3=O)cc1,–,"inconclusive: 22.4 µM [activator, partial curve]"
O=C(NC(=S)Nc1ccccn1)c1cc(-c2ccccc2)nc2ccccc12,–,"inconclusive: 14.1 µM [activator, partial curve]"
Cc1ccccc1C(=O)Nc1cc2c(cc1N1CCCCC1)n(C)c(=O)n2C,–,"inconclusive: 4.47 µM [activator, single point]"
O=C1CC(c2ccccc2)Oc2ccccc21 (stereo not given),–,active: 14.1 µM
CC(C)Cc1ccc(-c2cc3nc(NCc4cccc(Cl)c4)ccn3n2)cc1,inactive: 9.06%,–
COc1ccc(C)cc1NC(=O)C(=O)NCC(c1cccnc1)N1CCN(c2ccccc2F)CC1 (stereo not given),inactive: -10.2%,–
O=C(Cn1c(=O)n(-c2ccc(Cl)cc2)c(=O)c2c3c(sc21)CCCCC3)Nc1cccc(Cl)c1,inconclusive: 30.2% [activator],–
COc1ccc(CC(=O)Nc2cccc(S(=O)(=O)N3CCCCC3)c2)cc1,–,"inconclusive: 12.6 µM [activator, partial curve]"
COc1cccc(CNS(=O)(=O)c2ccc3c(c2)CC(C)N3C(=O)C2CCC2)c1 (stereo not given),–,"inconclusive: 14.1 µM [activator, single point] and inconclusive: 20 µM [activator, single point]"
COc1ccc(OCCOC(=O)c2ccc(F)c(S(=O)(=O)N3CCOCC3)c2)cc1,–,"inconclusive: 25.1 µM [activator, partial curve]"
CCc1cccc(NC(=O)Nc2cn(C)c(=O)c3ccccc23)c1,–,"inconclusive: 20 µM [activator, partial curve]"
CCOc1ccc(-c2cccc(NS(=O)(=O)c3cc([N+](=O)[O-])ccc3Cl)c2)nn1,–,"inconclusive: 22.4 µM [activator, single point]"
CCc1ccccc1NC(=O)Cn1c(=O)n(-c2cccc(C)c2)c(=O)c2c1c1cc(OC)ccc1n2C,–,"inconclusive: 0.501 µM [activator, partial curve, poor fit]"
COc1cnc(-c2ccccn2)nc1Sc1ccccc1Cl,–,"inconclusive: 11.2 µM [activator, partial curve, poor fit]"
CC(C)C[C@H]1CN([C@@H](Cc2ccc(O)cc2)CN2CCC[C@@H]2CN2C(=S)NC[C@@H]2Cc2ccccc2)C(=S)N1CC1CCCCCC1,–,"inconclusive: 1 µM [activator, full curve, poor fit]"
